# Reference: paper PMC4336329 (PLoS ONE, 2015)
# Out of some 310,000 compounds screened, about 2,200 (0.71%) showed an effect of 50% or more. The effect is printed as a negative number. The list shows a part of the results.
# Molecular target: human ether-à-go-go-related gene (hERG) potassium channel (human, UniProt Q12809)
# Assay: primary screen, population patch clamp on CHO cells stably expressing hERG
# Chain of human ether-à-go-go-related gene (hERG) potassium channel (Q12809 whole entry, looked up): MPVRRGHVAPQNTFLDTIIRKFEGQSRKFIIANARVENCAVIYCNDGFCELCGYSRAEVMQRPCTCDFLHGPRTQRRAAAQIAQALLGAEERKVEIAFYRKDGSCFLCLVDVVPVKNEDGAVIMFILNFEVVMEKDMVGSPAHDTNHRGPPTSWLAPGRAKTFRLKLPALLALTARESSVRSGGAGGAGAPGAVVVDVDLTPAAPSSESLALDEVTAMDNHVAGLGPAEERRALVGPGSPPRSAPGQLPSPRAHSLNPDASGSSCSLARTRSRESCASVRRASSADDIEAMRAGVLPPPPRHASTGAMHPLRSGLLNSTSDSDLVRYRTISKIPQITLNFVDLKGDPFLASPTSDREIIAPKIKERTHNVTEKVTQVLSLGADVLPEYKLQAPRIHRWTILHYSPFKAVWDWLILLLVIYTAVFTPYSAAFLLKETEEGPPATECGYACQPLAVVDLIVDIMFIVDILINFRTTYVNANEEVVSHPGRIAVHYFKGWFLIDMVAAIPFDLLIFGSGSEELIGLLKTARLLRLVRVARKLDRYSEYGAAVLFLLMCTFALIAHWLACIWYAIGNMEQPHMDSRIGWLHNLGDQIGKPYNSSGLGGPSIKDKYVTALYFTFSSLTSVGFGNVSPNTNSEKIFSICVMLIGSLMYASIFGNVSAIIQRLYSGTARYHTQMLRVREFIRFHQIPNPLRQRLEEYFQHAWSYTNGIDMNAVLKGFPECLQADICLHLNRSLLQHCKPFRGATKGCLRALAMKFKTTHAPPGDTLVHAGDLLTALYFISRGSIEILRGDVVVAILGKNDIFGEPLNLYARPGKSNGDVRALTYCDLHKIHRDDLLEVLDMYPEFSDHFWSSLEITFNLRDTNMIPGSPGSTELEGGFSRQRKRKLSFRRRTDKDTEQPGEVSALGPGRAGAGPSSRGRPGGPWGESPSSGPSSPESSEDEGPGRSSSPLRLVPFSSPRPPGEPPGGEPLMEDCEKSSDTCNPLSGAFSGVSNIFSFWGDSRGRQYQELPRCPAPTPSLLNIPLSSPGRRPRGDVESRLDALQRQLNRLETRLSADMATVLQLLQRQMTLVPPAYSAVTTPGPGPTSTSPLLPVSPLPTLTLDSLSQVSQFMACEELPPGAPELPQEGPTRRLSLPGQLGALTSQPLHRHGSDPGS
row,Compound,"hERG current change (%, negative = inhibition) at 1uM [%]"
1,COc1ccccc1N1CCN(C(=O)/C=C/c2ccc3c(c2)OCO3)CC1,8.32
2,CCCN=C1NC(=O)C(CC(=O)NCCc2ccc(OC)c(OC)c2)S1 (stereo not shown),8.63
3,COc1ccc(C(=O)NNC(=O)c2ccccn2)cc1,14.1
4,Nc1ccccc1C(=O)OCc1ccc([N+](=O)[O-])cc1,14.2
5,Cn1cc(C(=O)OCC(=O)Nc2ccccc2)c2ccccc21,6.61
6,Cc1ncc([N+](=O)[O-])n1CC(=O)NCc1ccccc1,6.08
7,Cn1c(C(=O)NCC2CCCO2)cc2c(=O)[nH]c3ccccc3c21 (stereo not shown),16.1
8,O=C(CCC1CCCN(C(=O)Cc2cccc(F)c2)C1)N1CCN(c2ccccn2)CC1 (stereo not shown),10.5
9,COc1cc(OC)c(N2CC(C(=O)NCCC3=CCCCC3)CC2=O)cc1Cl (stereo not shown),6.59
10,O=C(COc1ccc(Cl)cc1)OCC(=O)N1CCCCCC1,0.115
11,Cc1c(Cl)c([N+](=O)[O-])nn1CCCC(=O)Nc1cc(Cl)ccc1Cl,-10.9
12,Cc1ccc(S(=O)(=O)N2CCOCC2)cc1C(=O)Nc1ccc(-c2cn3ccsc3n2)cc1,-1.19
13,CN1C(=O)CSC1=Nc1ccc(Br)cc1,12.5
14,CCCCn1c(NC(=O)c2ccccc2)nc2ccccc21,4.77
15,Cn1c(SCc2ccc(Br)cc2)nnc1-c1cccs1,3.25
16,O=c1nc(N2CCCC2)nc(N2CCCC2)[nH]1,10.1
17,O=C(N/N=C\c1ccc([N+](=O)[O-])o1)C1COc2ccccc2O1 (stereo not shown),-20.3
18,Cc1cc(C)c2c3c(sc2n1)C(=O)N(c1ccccc1C)CC(=O)N3,15
19,CCCCn1cnc2c(oc3ccccc32)c1=O,10
20,CC(NS(=O)(=O)c1cccc(Cl)c1)C(=O)N(C)C1CCN(C)CC1 (stereo not shown),13.7

row,Compound,"hERG current change (%, negative = inhibition) at 1uM [%]"
1,O=C(NC1CC1)C1=C[C@H](C2CCCCC2)C[C@H](OCc2ccc(CO)cc2)O1,7.06
2,CC(C)(C)SC(=O)C[C@@H]1NS(=O)(=O)OC2CCCCC21 (stereo partly shown),5.66
3,CC(C)NC(=S)N1CCN(C/C=C/c2ccccc2)CC1,7.73
4,O=C(CN1CC=C(c2ccccc2)CC1)Nc1cc(Cl)ccc1Cl,-0.882
5,S=C(NCCc1ccccc1)Nc1ccc(Br)cn1,8.86
6,Cc1cc(=O)[nH]c(SCC(=O)NCCc2ccccc2)n1,-3.82
7,COC(=O)CN1C2(C#N)CCCCC2CC2CCCCC21C#N (stereo not shown),2.8
8,COC(=O)c1ccccc1-n1c(CCC(=O)O)ccc1-c1ccc(F)cc1,11
9,CCOC(=O)C1=NN(c2ccccc2)C2=NC(C)=C(C(=O)OC)C(c3ccc(C)cc3)N12 (stereo not shown),2.98
10,COc1ccc(N2CCN(C3CCCN(Cc4ccc(F)cc4)C3)CC2)cc1 (stereo not shown),0.279
11,COc1cc(OC)c(/C=N/N2CCN(c3ccccc3OC)CC2)c(OC)c1,11.2
12,O=C(Nc1cccc(C(F)(F)F)c1)c1cc2ncc(Br)cn2n1,13.8
13,COc1ccccc1NC(=S)NNC(=O)c1c(Cl)c(C)nn1C,13.5
14,Cc1ccc(CNc2nc(C)nc3sc4c(c23)CCC4)cc1,-1.86
15,CCOC(=O)N1CCN(C(=O)CN(C2CCCCC2)S(=O)(=O)c2ccc(F)cc2)CC1,4.7
16,Cc1nc2ccccc2c2nc(N)nn12,-7.08
17,CCN1CCCC1CNc1ccc(S(C)(=O)=O)cc1[N+](=O)[O-] (stereo not shown),-10
18,COc1ccc2nc3ccccc3nc2c1NC(=O)c1ccccc1Cl,-1.38
19,CCC1CCCCN1C(=O)c1ccc(OC2CCN(C(=O)COC)CC2)cc1 (stereo not shown),7.56
20,O=C(CCCCCN1C(=O)c2ccccc2C1=O)Nc1cccc(O)c1,9.29

row,Compound,"hERG current change (%, negative = inhibition) at 1uM [%]"
1,Cc1cc(C(=O)CSc2ncnc3ccccc23)c(C)n1C1CC1,12
2,O=C(COc1ccc(Cl)cc1)Nc1cccc(S(=O)(=O)NC2=NCCCCC2)c1,-3.24
3,Cc1ccc(N(CC(O)CN2CCOCC2)S(=O)(=O)c2ccc([N+](=O)[O-])cc2)cc1 (stereo not shown),-49.1
4,CCc1cc(=O)oc2cc(OCc3nn[nH]n3)ccc12,7.16
5,C[N+](C)(C)CC/C=C1/c2ccccc2CSc2ccccc21.[I-],9.18
6,CCOC(=O)c1ccc(NC(=O)CC2S/C(=N/N=C3/NC(=O)CS3)NC2=O)cc1 (stereo not shown),14.4
7,Cc1noc(-c2ccc(C(F)(F)F)cc2)c1NC(=O)Nc1ccc(Cl)cc1,18.7
8,CNNC(=S)NC1CC2CC1C1C=CCC21 (stereo not shown),12.5
9,CCn1ccnc1CN1CCCC(C(=O)c2ccc(SC)cc2)C1 (stereo not shown),-12.7
10,NS(=O)(=O)c1ccc(CCNC(=O)C2Cc3ccccc3CN2C(=O)c2ccco2)cc1 (stereo not shown),6.99
11,S=c1nc(-c2ccccc2)n(CCCN2CCOCC2)c2c1CCCC2,2.38
12,Cc1ccc(S(=O)(=O)CCC(=O)Nc2sccc2C#N)cc1,6.13
13,CCCCCCc1cc2cc(-c3nnc(-c4cc(OC)c(OC)c(OC)c4)o3)c(=O)oc2cc1O,6.29
14,COc1ccc(-c2c(C)nn3c(N4CCCCCC4)cc(C)nc23)cc1OC,11
15,COc1cc(C(=S)N2CCCC2)ccc1OS(=O)(=O)c1ccc(NC(C)=O)cc1,0.642
16,COC(=O)C1=NN(c2ccc(OC)cc2)C2C(=O)N(c3ccccc3OC)C(=O)C12 (stereo not shown),11.3
17,C=CCNC(=O)CN1C(=O)NC(C)(c2ccc(OC)cc2)C1=O (stereo not shown),-0.0235
18,O=C(/C=C/c1ccccc1[N+](=O)[O-])N1CCN(c2ccc(F)cc2)CC1,-14.5
